Reference: publication PMC5892938
Some of the results follow. At the low end of the ranking, values are background and their order means little.

molecular target: GST-SBP-SLBP (stem-loop binding protein) (UniProt Q14493); assay: targeted RNA Bind-n-Seq; settings: RBNS binding buffer: 25 mM Tris pH 7.5, 150 mM KCl, 3 mM MgCl2, 0.1% Tween, 0.5 mg/mL BSA, 1 mM DTT; 27 nM protein, 750 pM RNA pool; temperature not stated; high values mean tight binding;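 note: DESeq read counts versus GST-SBP nonspecific binding control pulldown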

| Sequence | binding signal (log2 fold change) |
| --- | --- |
| GGUCACGUCUCAAUCAACUCUUCCUCCAGGGAAAACCCUGGUAUUCUCAACAGCUCGCAGUCAAG | 0.106 |
| GGUCACGUCUCAAUCAACUCUAUUCCCAGGGAAAUCCCUGGCUUUCUCAACAGCUCGCAGUCAAG | 0.0548 |
| GGUCACGUCUCAAUCAACUCAUUCUCCAGGGAAACCCCUGGCAUAUUCAACAGCUCGCAGUCAAG | -0.042 |
| GGUCACGUCUCAAUCAACUCAACAGAGGGGGGGAAAACCCCUUUACCCUCAUCCUCAACAGCUCGCAGUCAAG | 0.294 |
| GGUCACGUCUCAAUCAACUCAAUGUCAGGAGUUUCCUCCUGUAAAUUCAACAGCUCGCAGUCAAG | 0.0476 |
| GGUCACGUCUCAAUCAACUCUUUUCCAGGAGUUUUCUCCUGUAUUUUCAACAGCUCGCAGUCAAG | 0.038 |
| GGUCACGUCUCAAUCAACUCUUCCCCCAGGGAAAUCCCUGGCUAAUUCAACAGCUCGCAGUCAAG | 0.0841 |
| GGUCACGUCUCAAUCAACUCUAUUUCCAGGGAAAUCCCUGGCUUACUCAACAGCUCGCAGUCAAG | -0.0226 |
| GGUCACGUCUCAAUCAACUCUCACGAGGGGGGGAAAACCCCUUUACCCUCCAUAUCAACAGCUCGCAGUCAAG | -0.101 |
| GGUCACGUCUCAAUCAACUCCACAGAGGGGGGGAAAACCCCUUUACCCUCAGAAUCAACAGCUCGCAGUCAAG | -0.0875 |
| GGUCACGUCUCAAUCAACUCAUCCUCAGGAGUUUACUCCUGCAUAGUCAACAGCUCGCAGUCAAG | 0.116 |
| GGUCACGUCUCAAUCAACUCAUCCCCAGGAGUUUACUCCUGCUAUCUCAACAGCUCGCAGUCAAG | -0.0172 |
| GGUCACGUCUCAAUCAACUCUUCUUCAGGAGUUUCCUCCUGCAUUUUCAACAGCUCGCAGUCAAG | -0.0201 |
| GGUCACGUCUCAAUCAACUCCUACGAGGGGGGGAAAACCCCUUUACCCUCAAACUCAACAGCUCGCAGUCAAG | -0.717 |
| GGUCACGUCUCAAUCAACUCAUUUUCCAGGGAAACCCCUGGUUAUCUCAACAGCUCGCAGUCAAG | 0.115 |
| GGUCACGUCUCAAUCAACUCAUUUUCCAGGGAAAACCCUGGUAUACUCAACAGCUCGCAGUCAAG | -0.155 |
| GGUCACGUCUCAAUCAACUCAAUCUCCAGGGAAAGCCCUGGUAUAUUCAACAGCUCGCAGUCAAG | 0.185 |
| GGUCACGUCUCAAUCAACUCAUCGUCCAGGGAAAGCCCUGGCUAAUUCAACAGCUCGCAGUCAAG | -0.204 |
| GGUCACGUCUCAAUCAACUCUAUAGAGGGGGGGAAAACCCCUUUACCCUCCAAAUCAACAGCUCGCAGUCAAG | -0.421 |

| Sequence | binding signal (log2 fold change) |
| --- | --- |
| GGUCACGUCUCAAUCAACUCUCACGAGGGGGGGAAAACCCCUUUACCCUCUCUAUCAACAGCUCGCAGUCAAG | -0.146 |
| GGUCACGUCUCAAUCAACUCUUUUUCAGGAGUUUACUCCUGUUUUCUCAACAGCUCGCAGUCAAG | -0.077 |
| GGUCACGUCUCAAUCAACUCUUUAGAGGGGGGGAAAACCCCUUUGCCCUCACUAUCAACAGCUCGCAGUCAAG | -0.0364 |
| GGUCACGUCUCAAUCAACUCAUCCCCCAGGGAAACCCCUGGUAAUCUCAACAGCUCGCAGUCAAG | -0.016 |
| GGUCACGUCUCAAUCAACUCUAACGAGGGGGGGAAAACCCCUUUGCCCUCAAUUUCAACAGCUCGCAGUCAAG | -0.0181 |
| GGUCACGUCUCAAUCAACUCAUCUUCAGGAGUUUGCUCCUGCAAUCUCAACAGCUCGCAGUCAAG | 0.328 |
| GGUCACGUCUCAAUCAACUCUUUUCCCAGGGAAACCCCUGGUAUGUUCAACAGCUCGCAGUCAAG | -0.171 |
| GGUCACGUCUCAAUCAACUCUACUCCAGGAGUUUACUCCUGUUAUCUCAACAGCUCGCAGUCAAG | -0.0853 |
| GGUCACGUCUCAAUCAACUCAUUUUCCAGGGAAAGCCCUGGCGUAUUCAACAGCUCGCAGUCAAG | -0.0777 |
| GGUCACGUCUCAAUCAACUCAGUUCCAGGAGUUUACUCCUGCUUUCUCAACAGCUCGCAGUCAAG | -0.155 |
| GGUCACGUCUCAAUCAACUCAUUCUCCAGGGAAAACCCUGGUUAUCUCAACAGCUCGCAGUCAAG | -0.296 |
| GGUCACGUCUCAAUCAACUCUUCUCCCAGGGAAACCCCUGGUAUACUCAACAGCUCGCAGUCAAG | 0.235 |
| GGUCACGUCUCAAUCAACUCUUCUUCAGGAGUUUACUCCUGCAUACUCAACAGCUCGCAGUCAAG | -0.154 |
| GGUCACGUCUCAAUCAACUCAAUCCCAGGAGUUUCCUCCUGUUAACUCAACAGCUCGCAGUCAAG | 0.193 |
| GGUCACGUCUCAAUCAACUCUUUCUCCAGGGAAACCCCUGGCUAUUUCAACAGCUCGCAGUCAAG | 0.0567 |
| GGUCACGUCUCAAUCAACUCAUCCCCCAGGGAAACCCCUGGUAUUUUCAACAGCUCGCAGUCAAG | -0.203 |
| GGUCACGUCUCAAUCAACUCUUCCCCCAGGGAAACCCCUGGUAUACUCAACAGCUCGCAGUCAAG | -0.299 |
| GGUCACGUCUCAAUCAACUCUUCCUCAGGAGUUUUCUCCUGUUUUGUCAACAGCUCGCAGUCAAG | 0.00931 |
